# Reference: paper PMC11062913
# Target: Negative elongation factor A (UniProt Q9H3P2)
# Test: cross-link between two proteins; cross-linking mass spectrometry
substance,measurement,value
Negative elongation factor B,listed as a hit,yes
